Data: PubChem BioAssay AID624417 (National Center for Advancing Translational Sciences (NCATS), 2012)
About 6,400 (1.6%) of roughly 410,000 compounds were called active. Inconclusive results, whose numbers are uncertain, are shown with a selection of clear calls. Calls follow the shape of the dose curve; as a rule, active = well fitted inhibition curve with a large enough effect; inconclusive = small, poorly fitted or top-dose-only effect; inactive = no such curve, though single readings can be large or run the other way. Potencies of inconclusive entries are left out as doubtful fits.

target: Glucagon-like peptide 1 receptor (Homo sapiens) (UniProt P43220); test: qHTS of GLP-1 Receptor Inverse Agonists (Inhibition Mode); conditions: HEK293 GLP-1R CRE-luciferase, luminescence, 24 h, GLP-1R form is constitutively active; series mostly up to 38.3 µM; also: nearly all actives have a fitted effect of over 55% in size
Chain of UniProt P43220 (P43220 whole entry, looked up): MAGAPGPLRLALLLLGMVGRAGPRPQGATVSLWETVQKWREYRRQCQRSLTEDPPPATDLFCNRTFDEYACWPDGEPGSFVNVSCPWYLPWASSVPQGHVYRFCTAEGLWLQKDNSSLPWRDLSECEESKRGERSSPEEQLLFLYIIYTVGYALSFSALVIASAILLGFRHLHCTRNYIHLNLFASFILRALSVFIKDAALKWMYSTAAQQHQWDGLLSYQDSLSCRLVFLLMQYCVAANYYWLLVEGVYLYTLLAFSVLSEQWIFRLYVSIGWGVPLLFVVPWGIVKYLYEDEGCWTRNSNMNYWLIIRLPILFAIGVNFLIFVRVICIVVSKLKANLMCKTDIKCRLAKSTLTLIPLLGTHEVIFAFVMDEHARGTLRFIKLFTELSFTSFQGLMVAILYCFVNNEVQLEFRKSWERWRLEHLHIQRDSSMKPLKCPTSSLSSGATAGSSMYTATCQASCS
Outline: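 Stable HEK293 clone (constitutively active GLP-1R + cAMP-response luciferase); 200 cells/uL plated, 12 h pre-culture, compound 24 hr, 37 deg C/5% CO2; detection reagent 12 min RT; luminescence.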
Potency is read from the fitted curve at half-maximal effect; tags tell the direction and shape of the fitted curve.

| SMILES | Potency |
| --- | --- |
| COc1ccc(NC(=S)N2CCNC(=O)C2CC(=O)Nc2cccc(Cl)c2C)cc1 (stereo unspecified) | inconclusive [inhibitor, single point] |
| O=C(Nc1ccc(Cl)cc1)C1Cc2c(-c3ccc(Cl)cc3)ccnc2O1 (stereo unspecified) | inconclusive [inhibitor, single point] |
| Cc1ccc(CSc2nnc(-c3ccccn3)n2Cc2cccs2)cc1 | inconclusive [inhibitor, partial curve, poor fit] |
| COc1ccccc1CNC(=O)C1CCN(S(=O)(=O)c2ccc3c(ccn3C)c2)CC1 | inactive |
| CCNC(=O)Nc1cc(S(=O)(=O)Nc2ccc(OC)cc2)ccc1N1CCOCC1 | inactive |
| CCCCn1c(NCc2cc(Br)ccc2O)nc2ccccc21 | inconclusive [inhibitor, partial curve, poor fit] |
| O=C(N/N=C/c1ccccc1F)c1csc2c1CCCC2 | inconclusive [inhibitor, single point] |
| Cc1ccc(S(=O)(=O)N2CCCC(C(=O)NNCC(=O)Nc3cc(F)ccc3F)C2)cc1 (stereo unspecified) | inconclusive [inhibitor, single point] |
| O=S1(=O)N[C@H](Cc2ccccc2)COc2cc(N3CC[C@H](O)C3)ccc21 | inconclusive [inhibitor, single point] |
| O=C(NC12CC3CC(CC(C3)C1)C2)N(Cc1ccccc1)Cc1ccncc1 | inconclusive [inhibitor, partial curve, poor fit] |
| CC(NC(=O)c1cc(F)c(F)cc1Cl)C1CC2CCC1C2 (stereo unspecified) | inconclusive [inhibitor, single point] |
| CC(=O)N(C)c1ccc(C=C2C=Cc3ccccc32)cc1 | inconclusive [inhibitor, partial curve, poor fit] |
| CCN1C(=O)[C@H]2[C@@H](c3ccc(-c4cc(C(C)=O)cs4)cc3)N[C@@](Cc3ccccc3)(C(=O)OC)[C@H]2C1=O | inactive |
| Cc1ccc(NC(=S)N2CCC(C(=O)c3ccc(F)cc3)CC2)cc1C | inconclusive [inhibitor, partial curve, poor fit] |
| COc1ccc(CN2CCn3ncc(C(=O)Nc4cccc(C)c4)c3C2=O)cc1 | inconclusive [inhibitor, partial curve, poor fit] |
| Cc1ccc(CN(C)S(=O)(=O)c2c(C)noc2/C=C/N(C)C)cc1 | inconclusive [inhibitor, single point] |
| Cc1ccccc1C(=O)N=c1ccn(-c2nc3ccccc3nc2NS(=O)(=O)c2ccc(F)cc2)cc1 | inconclusive [inhibitor, partial curve, poor fit] |
| COc1ccc(OC)c(-c2csc(NC(=O)C3CSC4(C)CCC(=O)N34)n2)c1 (stereo unspecified) | inconclusive [inhibitor, full curve] |
| CC(=O)c1ccc(OCC(O)CN(C)CCOc2ccc(Br)cc2)cc1 (stereo unspecified) | active: 10 µM |
| CCN(c1ccccc1)S(=O)(=O)c1ccc(Oc2ccc(-n3ccnc3)cc2)nc1 | inconclusive [inhibitor, partial curve, poor fit] |
| Fc1ccc(CSc2nsc(SCc3ccc(F)cc3)n2)cc1 | inconclusive [inhibitor, single point] |

| SMILES | Potency |
| --- | --- |
| COc1ccc(/C=N/NC(=S)Nc2ccccc2)cc1COc1cccc(C)c1C | inactive |
| CCN(CC)CC#CCC1(O)c2ccccc2-c2ccccc21 | inconclusive [inhibitor, single point] |
| CCOC(=O)c1ccc(NC(=S)N(CCN(C)C)C(C)c2ccncc2)cc1 (stereo unspecified) | inconclusive [inhibitor, single point] |
| COc1ccc(C)cc1NC(=O)CNC(C)C(=O)Nc1cc(Cl)ccc1Cl (stereo unspecified) | inconclusive [inhibitor, single point] |
| CSc1ccccc1NC(=O)C1(C)CCN1C(=O)Cc1ccc(-c2ccccc2)cc1 (stereo unspecified) | inconclusive [inhibitor, partial curve] |
| Cc1nc(C)c(C(=O)O)s1 | inactive |
| CCOC(=O)C1(CC2CCCCO2)CCN(C(=O)Nc2ccc(C(=O)OC)cc2)CC1 (stereo unspecified) | inconclusive [inhibitor, partial curve, poor fit] |
| Cc1cc(C)cc(CSCC(=O)N/N=C/c2ccc(OCC(=O)NCc3ccco3)cc2)c1 | inconclusive [inhibitor, single point] |
| CCc1ccc2c(COC(=O)c3n[nH]c4ccccc34)cc(=O)oc2c1 | inactive |
| CCOc1ccc(/C=N/NC(=O)c2[nH]ncc2Br)c(O)c1 | inconclusive [inhibitor, partial curve, poor fit] |
| CC1Oc2ccccc2N(Cc2cccc(F)c2)C1=O (stereo unspecified) | inconclusive [inhibitor, single point] |
| O=C(NC(c1ccc(F)cc1)c1ccc2ccccc2n1)C1CCN(Cc2ccc3ccccc3n2)CC1 (stereo unspecified) | inconclusive [inhibitor, partial curve, poor fit] |
| O=C(CN1C(=O)C2CCCCC2C1=O)Nc1cc(C(F)(F)F)ccc1N1CCCC1 (stereo unspecified) | inconclusive [inhibitor, partial curve, poor fit] |
| Cc1cccc(-c2nc(CSCC(=O)NCCc3ccc(Cl)cc3)c(C)o2)c1 | inconclusive [inhibitor, single point] |
| CC1(c2cccc(Br)c2)NC(=O)N(CC(=O)Nc2ccc3c(c2)OCO3)C1=O (stereo unspecified) | inconclusive [inhibitor, partial curve, poor fit] |
| O=C(COc1ccccc1F)Nc1nc(-c2ccccn2)cs1 | inconclusive [inhibitor, single point] |
| Cc1ccc(-c2cc(C(=O)N/N=C/c3ccc(Cl)cc3)n[nH]2)o1 | inconclusive [inhibitor, single point] |
| COc1ccccc1OCCCOc1c(Cl)cc(C)cc1Cl | inconclusive [inhibitor, single point] |
| Cc1ccc(Nc2nc(CSc3nnc(-c4ccc(F)cc4)n3C)cs2)cc1 | inconclusive [inhibitor, partial curve, poor fit] |
| O=C(Cn1cnc2ccccc21)c1ccc(Cl)cc1 | inconclusive [inhibitor, single point] |
| CCCN1CNC(=S)N(c2ccc(C(=O)OCC)cc2)C1 | inactive |

| SMILES | Potency |
| --- | --- |
| COC(=O)c1ccc(Oc2nc(NC(C)C)nc(NC(C)C)n2)cc1 | inconclusive [inhibitor, partial curve, poor fit] |
| CC1CCc2cc(F)ccc2N1C(=O)c1ccc2c(c1)OCO2 (stereo unspecified) | inconclusive [inhibitor, single point] |
| CC1=NN(C(=O)c2csc(C)c2)C(O)(C(F)(F)F)C1 (stereo unspecified) | inconclusive [inhibitor, full curve, poor fit] |
| CCCc1nc2ccccc2n1Cc1ccccc1OC | inconclusive [inhibitor, single point] |
| COc1cc(/C=C/c2nc(C#N)c(NCCc3ccccc3)o2)cc(OC)c1OC | inconclusive [inhibitor, single point] |
| Cc1cccc(-n2c(SCC(=O)NCc3ccc4c(c3)OCO4)nc3ccccc3c2=O)c1 | inconclusive [inhibitor, partial curve, poor fit] |
| Cc1cc(C)c(S(=O)(=O)N2CCN(C(=O)c3ccc(-n4nc(C)c(Cl)c4C)cc3)CC2)c(C)c1 | active: 7.08 µM |
| C=C[C@]1(C)C[C@@H](OC(=O)CSCCN(CC)CC)[C@]2(C)C(C)CC[C@]3(CCC(=O)[C@H]32)[C@@H](C)[C@@H]1O (stereo partly specified) | inconclusive [inhibitor, partial curve, poor fit] |
| Cc1ccc(C)c(NC(=O)c2nn(C)c3c2CS(=O)(=O)c2ccccc2-3)c1 | inactive |
| CC(NC(=O)COc1cccnc1[N+](=O)[O-])c1ccc(Cl)cc1 (stereo unspecified) | inconclusive [inhibitor, partial curve, poor fit] |
| CCc1ccc(-c2cc(C)no2)cc1S(=O)(=O)NCc1ccccc1OC | inconclusive [inhibitor, single point] |
| CC(=O)Nc1cccc(/C(C)=N/NC(=O)c2ccc(Cl)cc2Cl)c1 | inconclusive [inhibitor, single point] |
| Cc1ccc(C)c(NC(=S)c2ccccn2)c1 | inconclusive [inhibitor, full curve, poor fit] |
| CCOC(=O)[C@]12CCC=C1N(Cc1ccccc1)C(=O)[C@H](CC(=O)NCc1cccc(C(F)(F)F)c1)C2 | inconclusive [inhibitor, partial curve, poor fit] |
| O=[N+]([O-])c1cccnc1S(=O)(=O)c1ccccc1 | inconclusive [inhibitor, single point] |
| COc1ccc(C(C(=O)NC2CCCC2)N(C(=O)c2ccoc2C)c2ccccc2)cc1 (stereo unspecified) | inconclusive [inhibitor, partial curve, poor fit] |
| CN(C)S(=O)(=O)c1ccc(N2CCCC2)c(C(=O)NNC(=O)c2ccc(F)cc2)c1 | inactive |
| CCOC(=O)n1c(=O)n(Cc2ccc(Cl)c(Cl)c2)c2ccccc21 | inconclusive [inhibitor, partial curve, poor fit] |
| Cc1ccc2cc(S(=O)(=O)NCCCN3CCOCC3)ccc2c1 | inconclusive [inhibitor, single point] |
